Assay results reported in a collection of fitness landscapes (doi:10.1016/j.celrep.2020.107928).
In all, about 81,000 sequences were measured (“one-hybrid fitness for binding NBS DNA”: median about -0.1, highest 2% from about 0.36 on). This is one part of the list.

B1: Caulobacter ParB omega fusion; a variant is named by its letters at X, in order, B8GW30 (parent)
chain: MESVVVGEPGMSEGRRGLGRGLSALLGEVDAAPAQAPGEQLGGSREAPIEILQRNPDQPRRTFREEDLEDLSNSIREKGVLQPILVRPSPDTAGEYQIVAGERAWRAAQRAGLKTVPIMVRELDDLAVLEIGIIENVQRADLNVLEEALSYKVLMEKFERTQENIAQTIGKSXSHVANXMRLLXLPDEVQSYLVSGELTAXHARAIAAAADPVALAKQIIEGGLSVRETEALARKAPNLSAGKSKGGRPPRVKDTDTQALESDLSSVLGLDVSIDHRGSTGTLTITYATLEQLDDLCNRLTRGI

Variants of: B1
Assay: one-hybrid fitness for binding NBS DNA (the Noc-binding site; scaled: cognate 1, non-cognate 0); higher = stronger binding
Settings: with NBS DNA site
Summary of the method: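 In E. coli USO, a HIS3 reporter with its site placed 19 bp from the promoter was used to select Caulobacter ParB variants randomised at four specificity codons. Growth lasted 48 hours at 37°C on histidine-free M9 containing 0.1 mM IPTG and 5 mM 3-AT. Fitness was taken as the log change in variant-to-wild-type read ratio from Illumina sequencing of pre- and post-selection plasmids, rescaled between the non-cognate and cognate sites.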

Variant | one-hybrid fitness for binding NBS DNA
WPHT | ≤ 0.2
PCAD | ≤ 0.2
ALWS | ≤ 0.2
QNKA | ≤ 0.2
LKHN | ≤ 0.2
KEQS | ≤ 0.2
TACT | ≤ 0.2
QHLP | ≤ 0.2
LSNY | ≤ 0.2
WVGK | ≤ 0.2
MHLT | ≤ 0.2
GRNA | ≤ 0.2
WHGM | ≤ 0.2
IHID | ≤ 0.2
YMPF | ≤ 0.2
HSKP | ≤ 0.2
RQHS | 0.468
SGPT | ≤ 0.2
FGTW | ≤ 0.2
PVTA | ≤ 0.2
AYNT | ≤ 0.2
YFEV | ≤ 0.2
PDKK | ≤ 0.2
VLDN | ≤ 0.2
TMFL | ≤ 0.2

Variant | one-hybrid fitness for binding NBS DNA
NRWL | ≤ 0.2
CFTR | ≤ 0.2
ENMV | ≤ 0.2
DHRQ | ≤ 0.2
GWCG | ≤ 0.2
GTEE | ≤ 0.2
PESD | ≤ 0.2
LVGE | ≤ 0.2
VRSS | ≤ 0.2
LMRL | ≤ 0.2
TIRH | ≤ 0.2
NELR | ≤ 0.2
PMSY | ≤ 0.2
AQKQ | ≤ 0.2
ALKG | ≤ 0.2
ILTT | ≤ 0.2
YAGG | ≤ 0.2
RAKY | 0.274
ENYK | ≤ 0.2
EHTT | ≤ 0.2
QMSE | ≤ 0.2
HAWT | ≤ 0.2
FRFC | ≤ 0.2
CQHW | ≤ 0.2
YFLR | ≤ 0.2

Variant | one-hybrid fitness for binding NBS DNA
KMLK | ≤ 0.2
GPHT | ≤ 0.2
RKTD | ≤ 0.2
MHPF | ≤ 0.2
IQYE | ≤ 0.2
RSIA | ≤ 0.2
PWAL | ≤ 0.2
KLNP | ≤ 0.2
HARG | ≤ 0.2
KCKP | ≤ 0.2
AYAN | ≤ 0.2
LDIY | ≤ 0.2
THCG | ≤ 0.2
DPCR | ≤ 0.2
SHKI | ≤ 0.2
QFLT | ≤ 0.2
KMDS | ≤ 0.2
YPCG | ≤ 0.2
NHAF | ≤ 0.2
LRNV | ≤ 0.2
NRGA | ≤ 0.2
WLAG | ≤ 0.2
GRGL | ≤ 0.2
IGNN | ≤ 0.2
VHMY | ≤ 0.2

Variant | one-hybrid fitness for binding NBS DNA
VEAQ | ≤ 0.2
VGKT | ≤ 0.2
QQHV | ≤ 0.2
APAI | ≤ 0.2
VFVR | ≤ 0.2
RIVR | 0.28
KVIT | ≤ 0.2
QFGG | ≤ 0.2
RFYW | ≤ 0.2
HWQF | ≤ 0.2
QCRV | 0.525
QYHV | ≤ 0.2
VVAC | ≤ 0.2
NQQV | ≤ 0.2
QPKD | ≤ 0.2
QLSE | ≤ 0.2
IIYF | ≤ 0.2
ASYG | ≤ 0.2
YRGC | ≤ 0.2
CDAS | ≤ 0.2
LWDC | ≤ 0.2
LRTE | ≤ 0.2
GLGP | ≤ 0.2
EKES | ≤ 0.2
NLGV | ≤ 0.2

Variant | one-hybrid fitness for binding NBS DNA
FRGE | ≤ 0.2
MIPG | ≤ 0.2
IVFG | ≤ 0.2
TAEL | ≤ 0.2
QPHR | ≤ 0.2
PLWR | ≤ 0.2
PPRA | ≤ 0.2
QGNY | ≤ 0.2
MIYS | ≤ 0.2
LHYR | ≤ 0.2
QVTK | ≤ 0.2
PGGV | ≤ 0.2
KNRS | ≤ 0.2
QGQG | ≤ 0.2
QGWR | 0.203
MTLR | ≤ 0.2
RDFA | ≤ 0.2
MQAT | ≤ 0.2
NGEN | ≤ 0.2
RFEM | ≤ 0.2
YAPE | ≤ 0.2
GQHW | ≤ 0.2
ALRN | ≤ 0.2
RKIG | ≤ 0.2
LISA | ≤ 0.2

Variant | one-hybrid fitness for binding NBS DNA
PPQE | ≤ 0.2
QTIY | ≤ 0.2
MSNK | ≤ 0.2
AVKS | ≤ 0.2
QVRC | 0.215
PMMV | ≤ 0.2
NCHW | ≤ 0.2
NIAA | ≤ 0.2
STRK | ≤ 0.2
RIVF | ≤ 0.2
RMLI | ≤ 0.2
AAPC | ≤ 0.2
TGEV | ≤ 0.2
VYNQ | ≤ 0.2
TVSI | ≤ 0.2
PPIG | ≤ 0.2
PACW | ≤ 0.2
KMLC | ≤ 0.2
TFSE | ≤ 0.2
PNET | ≤ 0.2
WTVT | ≤ 0.2
FREP | ≤ 0.2
CSQG | ≤ 0.2
SCLK | ≤ 0.2
DHRY | ≤ 0.2

Variant | one-hybrid fitness for binding NBS DNA
CSQN | ≤ 0.2
LYDW | ≤ 0.2
AIDD | ≤ 0.2
WFWS | ≤ 0.2
KAES | ≤ 0.2
THQN | ≤ 0.2
PYSH | ≤ 0.2
SGHP | ≤ 0.2
PTFV | ≤ 0.2
TYIS | ≤ 0.2
QWYR | 0.201
YLKS | ≤ 0.2
DAVV | ≤ 0.2
SSSW | ≤ 0.2
KYTK | ≤ 0.2
ENRC | ≤ 0.2
WNHS | ≤ 0.2
WVTL | ≤ 0.2
VSKF | ≤ 0.2
TATN | ≤ 0.2
HVLL | ≤ 0.2
VILS | ≤ 0.2
SHTP | ≤ 0.2
SCDS | ≤ 0.2
DHWS | ≤ 0.2

Variant | one-hybrid fitness for binding NBS DNA
QATL | ≤ 0.2
EQTF | ≤ 0.2
IDSE | ≤ 0.2
LMCK | ≤ 0.2
QFDG | ≤ 0.2
RAIA | ≤ 0.2
TLHI | ≤ 0.2
TRPH | ≤ 0.2
IHAS | ≤ 0.2
HEHS | ≤ 0.2
TNLD | ≤ 0.2
LANI | ≤ 0.2
PEHG | ≤ 0.2
NTTG | ≤ 0.2
IPPR | ≤ 0.2
DTVK | ≤ 0.2
KKHY | ≤ 0.2
TNQV | ≤ 0.2
REDG | ≤ 0.2
NDVT | ≤ 0.2
